Reference: PubChem BioAssay AID1460 (National Center for Advancing Translational Sciences (NCATS), 2008)
Several values for one entry are separate records, joined by “and”; a condition that tells them apart may be missing. Equal values may be shown once. About 5,800 (2.1%) of roughly 270,000 compounds were called active. The shares of active, inactive and inconclusive entries below differ from those in the screen. The call rests on the fitted dose curve; in most records, active means well fitted inhibition curve with a large enough effect; inconclusive means small, poorly fitted or top-dose-only effect; inactive means flat fitted curve, though single readings scatter. Potencies beside an inconclusive call are fits to weak or partial responses and may not hold up.

Biological target: Microtubule-associated protein tau (Homo sapiens) (UniProt P10636)
Sequence of UniProt P10636 (P10636 whole entry, looked up): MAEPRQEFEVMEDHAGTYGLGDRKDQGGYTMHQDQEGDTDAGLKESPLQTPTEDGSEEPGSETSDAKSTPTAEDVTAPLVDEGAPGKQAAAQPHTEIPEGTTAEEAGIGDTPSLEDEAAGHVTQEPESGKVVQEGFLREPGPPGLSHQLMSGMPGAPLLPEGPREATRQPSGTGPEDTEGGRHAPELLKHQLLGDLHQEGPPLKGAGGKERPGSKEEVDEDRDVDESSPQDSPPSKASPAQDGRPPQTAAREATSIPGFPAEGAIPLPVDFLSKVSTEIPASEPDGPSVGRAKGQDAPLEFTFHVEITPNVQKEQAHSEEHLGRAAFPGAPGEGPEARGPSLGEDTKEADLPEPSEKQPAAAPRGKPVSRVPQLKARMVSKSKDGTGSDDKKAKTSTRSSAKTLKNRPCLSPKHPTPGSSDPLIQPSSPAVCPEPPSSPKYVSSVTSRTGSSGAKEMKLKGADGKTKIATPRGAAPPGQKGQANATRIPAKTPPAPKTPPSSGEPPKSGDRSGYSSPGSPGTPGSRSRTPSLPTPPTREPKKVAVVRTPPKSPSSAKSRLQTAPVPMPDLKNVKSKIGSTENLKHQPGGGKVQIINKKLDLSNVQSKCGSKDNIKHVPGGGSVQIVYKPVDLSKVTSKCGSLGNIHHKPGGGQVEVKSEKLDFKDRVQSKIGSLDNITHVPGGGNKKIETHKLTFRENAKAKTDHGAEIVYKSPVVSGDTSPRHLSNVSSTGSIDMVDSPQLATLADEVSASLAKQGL
Experiment: qHTS for Inhibitors of Tau Fibril Formation, Thioflavin T Binding; further: nearly all actives have a fitted effect of over 55% in size
Settings: recombinant tau K18 P301L, heparin-induced fibrillization, ThT fluorescence; series mostly up to 57.4 µM; activity, negative = inhibition: at the top concentration
How it was run: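 Fibril formation assay: tau K18 P301L at 15 uM with trace Alexa 594 label, heparin inducer 20 uM, pH 7 sodium acetate buffer, 37 C for 6 hr; endpoint ThT signal.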
On the % scale 0 is the no-effect control and ±100 the full control effect; potency means the concentration at half of the fitted maximal effect; tags describe the fitted curve by direction and shape.

Structure (SMILES) | activity, negative = inhibition | Potency
CC(C)(C)c1cc(/C=N/O)cc(C(C)(C)C)c1O | inactive: -2.34% | –
COc1ccc(-c2noc(-c3ccc(N4CCC(C)CC4)c([N+](=O)[O-])c3)n2)cc1OC | – | inconclusive: 0.224 µM [activator, full curve, poor fit]
C=CCn1c(=O)c2c(nc(-c3ccccc3)n2C)n(C)c1=O | inactive: -1.56% | –
CCN1CCN(c2ccc(NC(=O)CCc3c(C)nc4c(-c5ccccc5)c(C)nn4c3C)cc2)CC1 | – | inconclusive: 17.8 µM [inhibitor, partial curve]
Cc1ccc(CNC(=O)CSc2nc3n[nH]c(C)c3c(=N)n2-c2cccc(C)c2)cc1 | – | inconclusive: 39.8 µM [inhibitor, single point] and inconclusive: 35.5 µM [inhibitor, single point]
O=C(Cc1ccccc1)Nc1ccc(NC(=O)c2ccco2)nc1 | inactive: -12.5% | –
Cc1cccc(C(=O)Nc2ccc(OCc3cc(=O)n4c5c(sc4n3)CCCC5)cc2)c1 | – | inconclusive: 2.82 µM [inhibitor, full curve, poor fit]
Cc1nc(-c2ccc3c(c2)CCC(=O)N3)cs1 | – | inconclusive: 44.7 µM [inhibitor, single point]
Cc1ccc(NC(=O)Cn2cc(S(=O)(=O)c3ccccc3)c(=O)c3cc4c(cc32)OCO4)cc1 | inactive: -9.2% | –
COc1ccccc1Nc1nn2c(=O)c3ccc(C(=O)NC(C)c4ccccc4)cc3nc2s1 (stereo not drawn) | – | inconclusive: 5.62 µM [activator, single point]
O=c1[nH]c(Cc2cccs2)nc2ccccc12 | inactive: -8.2% | –
N/C(=N\OC(=O)Nc1ccccc1)c1ncc([N+](=O)[O-])s1 | – | inconclusive: 10 µM [inhibitor, partial curve, poor fit]
Cc1ccc(C)c(-n2c(-c3csc(C)c3)n[nH]c2=S)c1 | inactive: -9.85% | –
Cc1c(NC(=O)Nc2ccc(C#N)cc2)c(=O)n(-c2ccccc2)n1C | – | inconclusive: 8.91 µM [inhibitor, single point]
O=C(Nc1c(Cl)cccc1Cl)c1cc(-c2cccc(O)c2)on1 | – | inconclusive: 14.1 µM [inhibitor, partial curve]
CCOC(=O)c1cnc2ccc(OC)cc2c1Nc1ccc2c(c1)OCCO2 | – | inconclusive: 39.8 µM [inhibitor, single point]
N=C(N)SCc1nc2ccccc2c(=O)n1-c1ccccc1 | – | inconclusive: 12.6 µM [inhibitor, partial curve]
CC1(C)CC(=O)C(N=Nc2ccc(OC(F)F)cc2)=C(O)C1 | – | inconclusive: 20 µM [inhibitor, single point]
Cc1ccc(OCC(=O)O/N=C(\N)c2cccc([N+](=O)[O-])c2)cc1C | – | inconclusive: 2.82 µM [inhibitor, full curve]
COc1ccc2[nH]c3c(=O)n(CCCCC(=O)N4CCC(C(N)=O)CC4)c(=S)[nH]c3c2c1 | – | inconclusive: 20 µM [inhibitor, partial curve]
Cc1ccc(-c2nc3ccccn3c2Nc2ccc3c(c2)OCO3)o1 | – | inconclusive: 12.6 µM [inhibitor, partial curve]
Cc1ccc2cc(C#N)c(NCCNC(=O)C3CC3)nc2c1C | inactive: -6.7% | –
O=C(O)CCC(=O)NCCn1c(-c2ccccc2)csc1=Nc1ccccc1 | – | inconclusive: 25.1 µM [inhibitor, partial curve, poor fit]
O=C1NC(=S)SC1=C1CCCC1 | – | inconclusive: 35.5 µM [inhibitor, partial curve]
O=C(/C=C/c1cn(CC(O)CN2CCCCCC2)c2ccccc12)c1ccc(Br)cc1 (stereo not drawn) | – | active: 22.4 µM

Structure (SMILES) | activity, negative = inhibition | Potency
O=C(N/N=C/c1cccs1)c1n[nH]c2c1CCC2 | – | inconclusive: 15.8 µM [inhibitor, partial curve]
O=C1SCC(c2ccc(Cl)cc2Cl)=NN1Cc1nnc(-c2ccccc2)o1 | inactive: -1.85% | –
O=C(NNC(=O)C1CC1)c1cc2cc3ccccc3nc2s1 | – | inconclusive: 31.6 µM [inhibitor, single point]
CNc1nc2c3ccccc3n(C(C)=O)c2s1 | – | inconclusive: 28.2 µM [inhibitor, partial curve]
O=C(Cn1cc(C(F)(F)F)ccc1=O)N/N=C/c1ccc(F)cc1 | inactive: 2.5% | –
O=C1c2ccccc2C(=O)c2c(O)c(O)cc(O)c21 | – | active: 5.01 µM
Oc1ccc(N2CCN(c3ncnc4sc(-c5ccccc5)cc34)CC2)cc1 | – | inconclusive: 7.94 µM [inhibitor, partial curve]
O=C(CSc1ncnc2nc[nH]c12)N1CCN(c2ccc(Cl)cc2)CC1 | – | inconclusive: 15.8 µM [inhibitor, partial curve]
Cc1ccc(-c2oc3ccccc3c(=O)c2O)cc1 | inactive: -6.05% | –
COc1ccc(/C(N)=N/OC(=O)c2ccc(C)c([N+](=O)[O-])c2)cc1 | – | inconclusive: 4.47 µM [inhibitor, full curve]
Cc1cc(C)cc(-n2ccn(CC(=O)Nc3ccccc3F)c(=O)c2=O)c1 | – | inconclusive: 10 µM [inhibitor, partial curve]
CCCC1(C(=O)O)NC(c2ccccc2O)C2C(=O)N(Cc3ccccc3)C(=O)C21 (stereo not drawn) | inactive: -13.2% | –
CCOc1ccc(-n2nc(CO)c(C(=O)NCc3cccc(OC)c3)n2)cc1 | – | inconclusive: 2.82 µM [inhibitor, full curve, poor fit]
Cc1ccc(-c2nnn(CCOc3cccc(Br)c3)n2)cc1 | inactive: 3.07% | –
COc1ccc(-c2cc(=O)oc3c4c(ccc23)OCN(Cc2cccc(OC)c2)C4)cc1 | – | inconclusive: 10 µM [inhibitor, partial curve]
Cn1c(C(O)C(O)c2ccccc2)nc2ccccc21 (stereo not drawn) | inactive: 0.73% | –
CCN(CC)c1ccc2cc(-c3nc(-c4cc(OC)c(OC)c(OC)c4)no3)c(=O)oc2c1 | – | inconclusive: 0.891 µM [activator, full curve]
COc1ccc(S(=O)(=O)N2CCOCC2)cc1NC(=O)CSc1n[nH]c(C(C)C)n1 | inactive: -0.398% | –
CN(C)c1oc(-c2ccccc2[N+](=O)[O-])nc1C#N | – | inconclusive: 25.1 µM [inhibitor, single point]
COc1ccc(OC)c(NC(=S)N(CCc2c(C)[nH]c3ccccc23)Cc2cccs2)c1 | inactive: -13.3% | –
CC1CCN(C(=O)C2CCN(C(=O)c3cc4sccc4n3Cc3ccc(F)cc3)CC2)CC1 | – | inconclusive: 44.7 µM [inhibitor, single point]
Cc1ccc(S(=O)(=O)N(CC(=O)Nc2ccc3c(c2)OCO3)c2ccc(C)c(Cl)c2)cc1 | inactive: 3.67% | –
COc1ccccc1Nc1ccc(N)cc1 | – | active: 15.8 µM
COc1ccc(/C=C/C(=O)Nc2ccc3nc(N4CCCCC4)cc(C)c3c2)cc1OC | – | active: 2.82 µM
CC(C)c1ccc(Nc2c(-c3ccco3)nc3ccccn23)cc1 | inactive: -18.3% | –

Structure (SMILES) | activity, negative = inhibition | Potency
Cc1ccc(Nc2c(-c3ccccn3)nc3ccc(C)cn23)cc1 | – | inconclusive: 28.2 µM [inhibitor, partial curve]
Cc1ccc(N=Nc2c(N)n(-c3ccccc3)[nH]c2=O)cc1 | – | active: 3.16 µM
COc1ccc(C(=O)CSc2nnc(C3CC3)n2N)cc1 | – | inconclusive: 28.2 µM [inhibitor, single point]
CCOC(=O)c1ccc(NC(=O)c2nn(CC)cc2Br)cc1 | – | inconclusive: 3.16 µM [inhibitor, full curve]
Oc1cc2ccccc2cc1-c1n[nH]c(=S)o1 | – | inconclusive: 14.1 µM [inhibitor, partial curve]
CC(C)CCn1c(=S)[nH]c2ncccc2c1=O | inactive: 0.718% | –
O=C(Nc1ccc(N2CCOCC2)cc1)c1cc2ccccc2o1 | – | active: 5.62 µM
CCCC(C)C(=O)OCC(=O)Nc1ccc(Br)cc1 (stereo not drawn) | inactive: -7.01% | –
O=C1c2ccccc2C(=O)c2c(Nc3ccc(CCO)cc3)ccc(O)c21 | – | active: 2.82 µM
Cc1ccc2oc(-c3ccc(Cl)c(NC(=O)c4ccc(OC(C)C)cc4)c3)nc2c1 | – | inconclusive: 3.55 µM [inhibitor, single point]
Cc1ccccc1-c1noc(-c2cc(-c3ccc(F)cc3)n[nH]2)n1 | inactive: 3.69% | –
O=S(=O)(Cc1ccccc1)c1nnnn1C1CCCCC1 | inactive: 0.745% | –
Cc1nn(-c2ccccc2)c(C)c1C(=O)OCC(=O)N1CC(=O)Nc2ccccc21 | inactive: 5.89% | –
CCOC(=O)c1ccc(NC(=O)CSc2nc3c([nH]c4ccccc43)c(=O)n2C)cc1 | – | inconclusive: 15.8 µM [inhibitor, partial curve]
CC1=C(C(=O)OC(C)C)C(c2ccc(N(C)C)cc2)C2=C(CC(C)(C)CC2=O)N1 (stereo not drawn) | inactive: -9.25% | –
Cc1nn(-c2ccccc2)c(Cl)c1C(=O)NCC(C)C | inactive: -17% | –
CCc1ccc(C(=O)/C=C/c2cnn(C)c2C)s1 | – | inconclusive: 7.94 µM [inhibitor, partial curve, poor fit]
O=C(COC(=O)/C=C/c1cccs1)Nc1nc(-c2cccc(Br)c2)cs1 | inactive: -2.01% | –
Cc1ccc(C(=O)NCC(=O)OC(C)C(=O)Nc2ccc(N(C)C)cc2)cc1C (stereo not drawn) | – | inconclusive: 31.6 µM [inhibitor, single point]
CCOc1ccc(CCNC(=O)c2cc3c(=O)n(C)c4ccccc4c3n2C)cc1 | – | inconclusive: 3.16 µM [inhibitor, full curve]
Clc1cccc2sc(N3CCN(c4ccccc4)CC3)nc12 | – | inconclusive: 3.16 µM [inhibitor, full curve]
O=c1[nH]c2ccc(NCc3ccccc3F)cc2[nH]1 | – | inconclusive: 25.1 µM [inhibitor, single point]
CCOc1ccccc1OCCCOc1ccc([N+](=O)[O-])cc1Cl | – | inconclusive: 39.8 µM [inhibitor, single point]
